Laboratory results from paper PMC4336329 (PLoS ONE, 2015).
The whole screen tested about 310,000 compounds, of which about 2,200 (0.71%) showed an effect of 50% or more. Effects have a minus sign here. The list shows a part of the results.

Target: human ether-à-go-go-related gene (hERG) potassium channel (human, UniProt Q12809)
Assay: primary screen, population patch clamp on CHO cells stably expressing hERG

Sequence of human ether-à-go-go-related gene (hERG) potassium channel (Q12809 whole entry, looked up): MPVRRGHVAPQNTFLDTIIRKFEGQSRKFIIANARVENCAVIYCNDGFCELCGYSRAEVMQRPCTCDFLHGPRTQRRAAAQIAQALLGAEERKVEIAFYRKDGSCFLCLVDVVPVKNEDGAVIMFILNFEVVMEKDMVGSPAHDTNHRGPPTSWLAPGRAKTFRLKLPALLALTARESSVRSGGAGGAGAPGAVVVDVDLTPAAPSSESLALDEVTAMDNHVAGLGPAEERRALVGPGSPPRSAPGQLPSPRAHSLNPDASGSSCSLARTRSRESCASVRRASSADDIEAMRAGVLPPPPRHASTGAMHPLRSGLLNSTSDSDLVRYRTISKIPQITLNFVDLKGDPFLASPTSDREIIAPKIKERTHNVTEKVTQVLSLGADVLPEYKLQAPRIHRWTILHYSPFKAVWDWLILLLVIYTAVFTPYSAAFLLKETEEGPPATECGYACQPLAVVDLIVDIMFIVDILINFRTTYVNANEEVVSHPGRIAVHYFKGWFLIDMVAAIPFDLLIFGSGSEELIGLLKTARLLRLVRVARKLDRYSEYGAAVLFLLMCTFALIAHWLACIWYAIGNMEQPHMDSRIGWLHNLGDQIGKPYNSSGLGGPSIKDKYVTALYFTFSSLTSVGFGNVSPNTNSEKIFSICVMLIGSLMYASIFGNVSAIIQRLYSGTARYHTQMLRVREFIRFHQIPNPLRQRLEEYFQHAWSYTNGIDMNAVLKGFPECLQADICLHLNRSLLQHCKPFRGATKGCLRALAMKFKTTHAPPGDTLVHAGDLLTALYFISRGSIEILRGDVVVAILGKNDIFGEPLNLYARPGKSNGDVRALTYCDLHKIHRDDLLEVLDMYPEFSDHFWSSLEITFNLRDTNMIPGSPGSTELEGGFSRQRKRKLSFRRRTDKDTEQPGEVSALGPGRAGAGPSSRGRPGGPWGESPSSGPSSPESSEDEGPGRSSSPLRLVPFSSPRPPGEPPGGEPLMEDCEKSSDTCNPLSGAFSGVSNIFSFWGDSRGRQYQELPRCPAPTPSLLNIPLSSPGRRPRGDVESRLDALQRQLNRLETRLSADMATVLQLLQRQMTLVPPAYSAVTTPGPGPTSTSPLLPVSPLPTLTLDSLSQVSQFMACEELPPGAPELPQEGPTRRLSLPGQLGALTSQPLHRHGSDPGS

Row | SMILES | hERG current change (%, negative = inhibition) at 1uM [%]
1 | COC(=O)C/C(C)=N/Nc1ccc(S(=O)(=O)N2CCCC2)cc1[N+](=O)[O-] | 15.3
2 | O=C(Nc1ccc(Cl)cc1)OCc1ccccn1 | 10.9
3 | Cn1nnnc1Sc1ncnc2scc(-c3ccccc3C(F)(F)F)c12 | 10
4 | Cc1c(C)c2cc3c4c(oc3c(C)c2oc1=O)CCCC4 | -0.48
5 | Cc1ccccc1NC1=NC2(CCCC2)N=C(N)N1 | 10.7
6 | COc1cc(NS(=O)(=O)c2ccc(NC(C)=O)cc2)cc(OC)c1 | 9.87
7 | O=C(OCC(=O)N1CCCc2ccccc21)c1ccc(Cl)nc1 | 7.33
8 | Cc1cccc(C(=O)N2CCCN(C(=O)c3cccc(C)c3)CC2)c1 | 6.97
9 | C/C(=N\NC(=O)CCc1c(C)n[nH]c1C)c1ccc([N+](=O)[O-])cc1 | 3.91
10 | COc1ccc(S(=O)(=O)NCC(c2ccc3c(c2)OCO3)N2CCOCC2)cc1 (stereo not drawn) | 3.61
11 | CCOC(=O)N1CCc2c(sc(NC(=O)CCS(=O)(=O)c3ccccc3)c2C(N)=O)C1 | 6.71
12 | O=C1[C@@H]2Cc3c([nH]c4ccccc34)CN2C(=O)CN1CCCCCO | 10.7
13 | O=C(CCCl)N1CCCC2(CCCCC2)C1 | 13.8
14 | CCOC(=O)N1CC=C2C(C#N)=C(N)C(C#N)(C#N)[C@H](c3ccccc3OCC)[C@H]2C1 | 7.44
15 | O=C(Nc1ccccc1)c1cccc(S(=O)(=O)N2CCCCC2)c1 | 17.5
16 | CCCNC(=O)C1CN(C(=O)c2nn(Cc3ccccc3)c(=O)c3ccccc23)c2ccccc2O1 (stereo not drawn) | 6.6
17 | CC(O)CNCc1cccc2ccccc12.Cl (stereo not drawn) | 11.2
18 | CC1(C(=O)Nc2cccc(S(=O)(=O)N3CCOCC3)c2)Cc2ccccc2C(=O)O1 (stereo not drawn) | 12.2
19 | CCOc1ccc(NC(=O)CN2CCN(C(=O)c3ccco3)CC2)cc1S(=O)(=O)N1CCCC1 | -4.9
20 | O=C(CSc1cccc[n+]1[O-])N1CCCc2ccccc21 | 9.37
21 | CNC(=O)C1(CC(C)C)C=CCN1C(C)=O (stereo not drawn) | 13
22 | CC1CCC(NC(=O)CC(C)(C)Cc2nc3ccccc3c(=O)[nH]2)CC1 (stereo not drawn) | 8.72

Row | SMILES | hERG current change (%, negative = inhibition) at 1uM [%]
23 | CC(=O)Nc1ccc(N(C(=O)CNC(=O)c2ccco2)C(C(=O)NCc2ccco2)c2ccccc2F)cc1 (stereo not drawn) | 18.3
24 | COc1ccc(Cl)cc1NC(=O)CN1CCN(S(=O)(=O)N2CCOCC2)CC1 | -19.4
25 | CCOC(=O)c1cc(C)sc1/N=C/C1=C(O)CCCC1=O | 3.64
26 | O=C(Nc1ccc(Cl)cc1)c1ccc2nsnc2c1 | 18.3
27 | Cc1ccc(C)c(N2N=C(C(=O)Nc3cccnc3)CCC2=O)c1 | 3.96
28 | CCOC(=O)c1c(NC(=S)Nc2ccc(OC)cc2)sc2c1CCCCC2 | 22.1
29 | CCOC(=O)Oc1ccc2c(=O)c(Oc3cc(C)cc(C)c3)coc2c1 | -7.75
30 | Cc1cccc(N2CCN(C(=O)CN(C)S(=O)(=O)c3ccc4c(c3)CCC(=O)N4)CC2)c1C | -13
31 | COC(=O)C1CCN(C(=O)COC(=O)[C@@H]2CC(O)CN2S(=O)(=O)c2ccc3c(c2)OCCO3)CC1 (stereo partly drawn) | 7.74
32 | O=C1c2ccccc2C(=O)c2[nH]c(=O)[nH]c21 | 5.6
33 | CC1CCN(C(=O)Cn2cc(SCC(=O)NCC3CCCO3)c3ccccc32)CC1 (stereo not drawn) | 5.1
34 | CCOC(=O)C1CCN(c2cc3c(cc2NC(=O)c2cc(OC)ccc2Br)n(C)c(=O)n3C)CC1 | 18.8
35 | Cc1cc(C)c(-c2cc(C(F)(F)F)no2)c(=O)[nH]1 | 12.2
36 | CC(C)CNC(=O)COC(=O)c1ccc(Cl)c(S(N)(=O)=O)c1 | 8.61
37 | Cn1cc(Br)c(C(=O)NC(=S)Nc2ccc(S(N)(=O)=O)cc2)n1 | 11.8
38 | CCCCCCCCc1c(O)nc(-n2[nH]c(C)c(CCO)c2=O)[nH]c1=O | 11.8
39 | Cc1cc(C)cc(NC(=O)CN2CCN(CCN=CC3=C(O)CC(c4ccc(Cl)cc4)CC3=O)CC2)c1 (stereo not drawn) | -1.31
40 | Cc1ccccc1NC(=S)N(Cc1cccnc1)Cc1ccccc1Cl | 4.47
41 | Cc1ccc(C(=O)NC(=S)NNS(=O)(=O)c2ccccc2)cc1 | 13.5
42 | CC(=NCc1ccc(F)cc1)c1c(O)n(C)c(=O)n(C)c1=O | -6.74
43 | COc1ccc(CNC(=S)Nc2ccccc2)cc1 | 7.93
44 | Cc1nn(CC(=O)O)c2ccccc12 | 18.5

Row | SMILES | hERG current change (%, negative = inhibition) at 1uM [%]
45 | CCC(C)NS(=O)(=O)c1ccc(NC(=O)C2CCN(C(=O)c3ccco3)CC2)cc1 (stereo not drawn) | 8
46 | Cc1ccc(OCCC(=O)NCCc2ccc(S(N)(=O)=O)cc2)cc1 | 11.9
47 | CCOC(=O)C1CCN(C(=O)Cn2cc3c(n2)CCC(C)C3)CC1 (stereo not drawn) | 6.1
48 | c1cnc(Oc2ccc3oc4ccccc4c3c2)nc1 | 7.27
49 | CCC/C=C1/CCCOC(C(=O)NCc2ccccc2)(C(F)(F)F)C1 (stereo not drawn) | 12
50 | CCN(CC(=O)Nc1ccc(OC)cc1)C(=O)c1ccc(=O)n(Cc2ccccc2)n1 | -4.32
51 | CC1=C(C(=O)Nc2ccc(C)cc2C)C(c2cccs2)NC(=S)N1 (stereo not drawn) | -3.45
52 | Cl.O=C(CN1CCN(C2CCCCC2)CC1)Nc1ccc(Br)cc1 | -45.6
53 | COc1ccc(-c2nnc(SCc3ccc(C(=O)O)cc3)n2N)cc1 | 0.42
54 | O=C(COC(=O)c1ccc(Cl)nc1)Nc1ccc2c(c1)OCO2 | 12.4
55 | Fc1ccc(Nc2nc(-c3ccncc3)cs2)cc1 | 5.83
56 | O=C(O)c1ccc(N/N=C/c2ccc3ncccc3c2)cc1 | 10.8
57 | CCNC(=O)/C(=C\C=C\c1ccccc1)NC(=O)c1ccc(Br)o1 | 6.46
58 | O=C1[C@@H]2[C@H]3CC[C@H](C3)[C@@H]2C(=O)N1O | 18.4
59 | Cc1cc(N2CCOCC2)ccc1/C=C1\C(=O)NC(=O)N(c2ccccc2)C1=O | 13.8
60 | COc1ccccc1C(=O)Nc1ccc(Nc2ccccc2)cc1 | 14.8
61 | COCCNC(=S)N1CCN(c2nc(-c3ccc(Cl)cc3)cs2)CC1 | 9.43
62 | CCC(C)NCCCOc1cc(Cl)ccc1Cl.O=C(O)C(=O)O (stereo not drawn) | -9.91
63 | COc1ccccc1NC(=O)CC1S/C(=N/N=C(\C)C2CCCCC2)NC1=O (stereo not drawn) | 12.6
64 | CN(C)c1ccc(-c2cc([C@H]3[C@@H]4C=CCC[C@@]4(C)C(=O)N3Cc3ccccc3)ccc2F)cc1 | 13.4
65 | COc1cc2cc(CN(Cc3cccs3)C(=S)Nc3ccccc3)c(=O)[nH]c2cc1OC | 0.55
66 | COc1cc2c(cc1OC)CN(Cc1cc(OC)c3c(c1)OCO3)CC2 | 18.4

Row | SMILES | hERG current change (%, negative = inhibition) at 1uM [%]
67 | [N-]=[N+]=NCc1cn2cccnc2n1 | 21
68 | Cc1ccc(NC(=O)NC(=O)CN2C(=O)NC3(CCc4ccccc43)C2=O)c(C)c1 (stereo not drawn) | 4.35
69 | CC(=O)N1CCN(C(=O)c2cccc(NS(=O)(=O)c3ccc(Br)cc3)c2)CC1 | 4.77
70 | O=C(Nc1ccc(C(=O)O)cc1)/C(=C/c1ccc2c(c1)OCO2)NC(=O)c1cccc(Br)c1 | 7.15
71 | O=C(O)c1nnn(-c2cccc(C(F)(F)F)c2)c1-c1ccccc1 | 13.8
72 | Cc1ccc(NC(=O)CCc2nnc3ccc(N4CCC5(CC4)OCCO5)nn23)nc1 | 9.06
73 | COC(=O)c1sc(N2CCN(Cc3ccccc3)CC2)nc1N | 16.4
74 | Cc1ccnc(NC(=O)C(C)N2C(=O)c3ccccc3S2(=O)=O)c1 (stereo not drawn) | 9.85
75 | CC1(C)C2CCC(C2)C1(C)NC(=O)CN1CCN(Cc2ccccc2)CC1.Cl (stereo not drawn) | 15
76 | Cn1c(=O)[nH]c(=O)c2c1nc(SCCO)n2CCCc1ccccc1 | 5.4
77 | COc1ccc(NC(C)=O)cc1NC(=O)CN1CCN(C2c3ccccc3-c3ccccc32)CC1 | 13.5
78 | O=C(NCCc1ccccc1)C1CCCN(c2nc3ccccc3s2)C1 (stereo not drawn) | 8.79
79 | COc1nc(NCC(C)C)nc(Oc2ccc(OCc3ccccc3)nn2)n1 | 2.77
80 | Cc1ccc(NS(=O)(=O)c2ccc(/C=C/C(=O)O)cc2)cc1Cl | 16.3
81 | O=C(C(=O)N1CC=C(c2ccccc2)CC1)c1c[nH]c2ccccc12 | 6.67
82 | COc1cccc(/C=C(\C)C(=O)c2c(C)cc(C)[nH]c2=O)c1OC | 11.4
83 | COc1cc2nc(SCC(=O)NCCc3ccccc3)n(Cc3ccco3)c(=O)c2cc1OC | 7.18
84 | O=C(Cc1cccc(C(F)(F)F)c1)Nc1cc(S(=O)(=O)N2CCOCC2)ccc1N1CCCC1 | 3.37
85 | COc1cc(/C=C2\SC(=Nc3ccc(O)cc3)NC2=O)cc(OC)c1OC | 13.5
86 | COc1cccc(CCNC(=O)c2ccc(OC)c(OC3CCN(C(C)C)CC3)c2)c1 | -2.35
87 | COC(=O)CSc1nnc(-c2cccc(NC(=O)c3ccc(C)cc3)c2)n1C | -6.35
